Assay results: PubChem BioAssay AID504832 (National Center for Advancing Translational Sciences (NCATS), 2011)
About 18,000 (5.8%) of roughly 310,000 compounds were called active. This list was built around the results that the source calls inconclusive (neither active nor inactive); the mix of calls is not that of the screen. The call rests on the fitted dose curve; in most records, active means well fitted inhibition curve with a large enough effect; inconclusive means small, poorly fitted or top-dose-only effect, or another doubt; inactive means no such curve, though single readings can be large or run the other way. Potencies of inconclusive entries are left out as doubtful fits.

Assay: Primary qHTS for delayed death inhibitors of the malarial parasite plastid, 48 hour incubation
Conditions: P. falciparum luciferase growth in erythrocytes; series mostly up to 28.7 µM
Method in brief: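 Cell-based growth assay: transgenic P. falciparum expressing firefly luciferase, cultured in red cells within RPMI 1640 containing 0.5% w/v Albumax, 24 mM bicarbonate and gentamycin. A drop in luciferase activity indicates inhibition.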
On the % scale 0 is the no-effect control and ±100 the full control effect; potency means the concentration at half of the fitted maximal effect; tags describe the fitted curve by direction and shape.

Compound	Potency	activity change, negative = inhibition
COCCN(C(=O)CSc1nnc(-c2ccccc2OC)o1)c1c(N)n(CC(C)C)c(=O)[nH]c1=O	inconclusive [inhibitor, single point]	–
CC1CN(C(=O)c2ccc(NS(=O)(=O)c3ccc(F)c(F)c3)cc2)CC(C)O1 (configuration not stated)	inconclusive [inhibitor, single point]	–
Cc1cccc(NC(=O)c2oc3ccc(S(=O)(=O)N4CCOCC4)cc3c2C)c1C	active: 4.65 µM	–
CC(=O)c1ccc(OCc2ccccc2)c(C)c1O	inactive	–
CCCSc1cc(NCCOC(C)=O)c([N+](=O)[O-])c2nonc12	inactive	–
O=C(CN1C(=O)/C(=C/c2ccccc2F)Sc2ccccc21)NCc1cccnc1	inconclusive [inhibitor, single point]	–
CCCNC(=O)c1ccc(Cn2c(=S)[nH]c3c([nH]c4ccc(OC)cc43)c2=O)cc1	inconclusive [inhibitor, single point]	–
CC1CCCCC1NC(=O)CSc1nnc(-c2ccco2)n1C (configuration not stated)	inconclusive [inhibitor, single point]	–
CC1(C)CC(=O)C(CS(=O)(=O)c2ccccc2)=C(O)C1	inconclusive [inhibitor, partial curve, poor fit]	–
COc1ccc(Cl)cc1Nc1nc(-c2sc(NC(=O)C(C)(C)C)nc2C)cs1	active: 10.4 µM	–
CCCCn1c(=N)n(CC(=O)c2ccc([N+](=O)[O-])cc2)c2ccccc21	inactive	–
COc1ccccc1NC(=O)N[C@@H](Cc1c[nH]c2ccccc12)C(=O)NN	inconclusive [inhibitor, single point]	–
Cc1cccc(/C(N)=N/OC(=O)COc2ccc(Cl)cc2)c1	inconclusive [inhibitor, partial curve, poor fit]	–
Cc1nc(N2CCN(c3ccccn3)CC2)c2c(C)c(C(=O)Nc3c(F)cc(F)cc3Br)sc2n1	active: 11.7 µM	–
CCC(=O)N1CCC2(CC1)Oc1ccc(F)cc1C(=O)C21CC(c2ccc(Cl)cc2)=NO1 (configuration not stated)	inconclusive [inhibitor, single point]	–
CN1CCN(c2cnn(-c3ccccc3)c(=O)c2Br)CC1	–	inactive: 37.3% [at 5.75 µM]
Cc1cc(C)nc(Sc2ccc(/C=C(\C#N)C(=O)Nc3ccccc3)o2)n1	inactive	–
COc1cc(C(=O)NC2CCN(Cc3ccccc3)CC2)cc(Cl)c1OC(C)C	inconclusive [inhibitor, single point]	–
CC(NC(=S)NC1CCC(C(C)(C)C)CC1)c1ccccc1 (configuration not stated)	active: 7.38 µM	–
Cc1ccc(N(C)C2=NC(=O)CS2)cc1Cl	active: 2.08 µM	–
O=C(Nn1cc(C(=O)Nc2ccccc2F)c2ccccc2c1=O)c1cnccn1	active: 4.15 µM	–
COc1ccc(N(C(=O)Cn2nnc3ccccc32)C(C(=O)NCc2ccco2)c2ccc(C)o2)cc1 (configuration not stated)	inconclusive [inhibitor, partial curve]	–
CSc1ccc(S(=O)(=O)Nc2ccc(OCC(=O)N3CCOCC3)cc2)cc1	inactive	–

Compound	Potency	activity change, negative = inhibition
CCOc1ccc(-n2c(N)c(C(=O)N3CCN(C)CC3)sc2=S)cc1	inactive	–
CCCn1c(NC(=O)c2ccc(Cl)c(S(=O)(=O)N3CCCC3)c2)nc2ccccc21	active: 5.86 µM	–
COc1cc(C2C(C#N)=C(N)Oc3c2oc(CO)cc3=O)ccc1OC(C)C (configuration not stated)	inconclusive [inhibitor, partial curve, poor fit]	–
Nc1nonc1-n1nnc(C(=O)N/N=C/c2ccncc2)c1-c1cccs1	inactive	–
COc1cccc(NC(=O)CN(C)C(=O)c2ccc(NC3CC3)c([N+](=O)[O-])c2)c1	inconclusive [inhibitor, single point]	–
CC(C)(C)c1ccc(S(=O)(=O)N2CCCCC2)cc1	inconclusive [inhibitor, partial curve]	–
Cn1c(CC(=O)Nc2ccccc2C(F)(F)F)c(Sc2ccccc2)c2ccccc21	active: 14.7 µM	–
O=C(O)c1cc(S(=O)(=O)N(Cc2ccccc2)c2cccc(C(F)(F)F)c2)ccc1Cl	inconclusive [inhibitor, full curve, poor fit]	–
Cc1ccc(S(=O)(=O)c2cc3c(=O)n4ccccc4nc3n(Cc3ccco3)c2=N)cc1C	inconclusive [inhibitor, single point]	–
COc1ccc(Cn2cnc3c(NS(C)(=O)=O)c(C)c(C)cc32)cc1	inconclusive [inhibitor, partial curve, poor fit]	–
COc1ccc(S(=O)(=O)N2CCN(C(=O)COc3ccc4c(C)cc(=O)oc4c3)CC2)cc1	inconclusive [inhibitor, partial curve, poor fit]	–
COC(=O)c1ccc(CSc2ccc(S(=O)(=O)N3CCCCC3)cn2)cc1	inactive	–
CC[n+]1cccc(-c2nc3ccccc3s2)c1	inactive	–
Cc1ccc(OCc2nnc(SCc3ccc(C#N)cc3)n2-c2ccc(C)cc2)cc1	active: 13.1 µM	–
COc1cc2c(cc1OC)C(C)N(C(=O)C(NC(=O)c1ccccc1)C(C)C)CC2 (configuration not stated)	inconclusive [inhibitor, partial curve]	–
CCCCOc1ccc(N(CC(=O)NC2CCCCC2)C(=O)CCC(=O)Nc2ccccn2)cc1	active: 11.7 µM	–
CNC(=O)c1cccc(NC(=O)c2cc(-c3ccccc3)nc3c2cnn3C(C)C)c1	active: 4.65 µM	–
Cc1cc(C)n(C(C)CNS(=O)(=O)c2ccc(C)c(C)c2)n1 (configuration not stated)	inactive	–
Cc1cc(Cl)ccc1OCC(=O)Nc1cccc(S(=O)(=O)N2CCCC2)c1	inconclusive [inhibitor, single point]	–
CC(=O)c1cccc(NC(=O)N2C3CCC2CC(NC(=O)Nc2ccccc2)C3)c1 (configuration not stated)	inconclusive [inhibitor, partial curve]	–
CCCc1ccc(OCc2ccc(C(=O)N3CCN(c4ccccn4)CC3)o2)c(OC)c1	active: 13.1 µM	–
COC(=O)c1c(C)oc(C)c1S(=O)(=O)Nc1ccc(C(C)C)cc1	inconclusive [inhibitor, partial curve]	–
CCN(C(=O)c1c(OC)cccc1OC)c1nnc(-c2cccnc2)s1	inconclusive [inhibitor, single point]	–

Compound	Potency	activity change, negative = inhibition
Cc1cc(Oc2ccc(C(F)(F)F)cc2[N+](=O)[O-])c2c3c(c(=O)oc2c1)CCCC3	inconclusive [inhibitor, single point]	–
CC(=O)Nc1cccc(C(=O)OCC(=O)NC(C)c2ccc(F)cc2)c1 (configuration not stated)	inconclusive [inhibitor, single point]	–
O=C(c1cc(Cl)cc(Cl)c1)N1CCC(=O)N(C(COCc2ccccc2)Cc2ccccc2)CC1 (configuration not stated)	inconclusive [inhibitor, partial curve, poor fit]	–
O=C(O)CC12CC3CC(C1)CC(n1ncc(NCc4ccco4)c(Cl)c1=O)(C3)C2	inconclusive [inhibitor, partial curve, poor fit]	–
COc1ccc(N2CCN(C(=O)COC(=O)c3ccc(CSC)o3)CC2)cc1	inconclusive [inhibitor, single point]	–
CCOC(=O)C1=C(C)NC(=S)NC1/C=C/c1ccccc1 (configuration not stated)	inconclusive [inhibitor, partial curve, poor fit]	–
CCOC(=O)c1c(C)nc2sc3c(=O)n(-c4ccc(OC)cc4)cnc3c2c1-c1ccc(OC)cc1	inconclusive [inhibitor, partial curve, poor fit]	–
Cc1nc(N2CCN(Cc3ccccc3)CC2)nc2c1CCC2	inconclusive [inhibitor, full curve, poor fit]	–
O=C(NN1C(=O)C2C3C=CC([C@H]4CC34)[C@@H]2C1=O)c1ccc(Br)cc1 (some centres not stated)	inconclusive [inhibitor, single point]	–
CC(C)(C)c1cc[n+](C2=C([O-])c3ccccc3C(=O)/C2=N\S(=O)(=O)c2ccccc2)cc1	active: 3.7 µM	–
O=C(NCc1ccccc1Cl)c1cnc2ccccc2n1	inactive	–
Nc1nc(Cl)cc(N2CCC(c3cc(-c4ccc(Cl)cc4Cl)n[nH]3)CC2)n1	inconclusive [inhibitor, single point]	–
COc1ccc(CCC(=O)Nc2cc(S(C)(=O)=O)ccc2Cl)cc1	inactive	–
O=C(c1ccc(C(F)(F)F)n(Cc2ccc(Cl)cc2)c1=O)N1CCOCC1	inconclusive [inhibitor, single point]	–
COc1ccc([C@H]2C=C3CN(C(=O)OC(C)(C)C)S(=O)(=O)[C@H]3C[C@H]2OC(=O)c2cccs2)cc1	inconclusive [inhibitor, single point]	–
Cc1ccc(C(=O)O)cc1NC(=S)NC(=O)c1ccc(COc2ccccc2)cc1	inactive	–
NCCCCCC(=O)OC1N=C(c2ccccc2Cl)c2cc(Br)ccc2NC1=O (configuration not stated)	inconclusive [inhibitor, single point]	–
COc1cccc(OC)c1C1=NC(C)(C)CO1	inactive	–
CC(C)C[C@H](NC(=O)N1CCn2c1nc1ccccc12)C(=O)N1CCCCC1	inconclusive [inhibitor, single point]	–
O=C(Nc1ccc(N2CCN(C(=O)c3cccs3)CC2)cc1)c1cccnc1	inconclusive [inhibitor, partial curve, poor fit]	–
CCCN1CNC(=S)N(CC2CCCO2)C1 (configuration not stated)	inactive	–
